# Hit rate of the full screen: of about 420,000 compounds, about 50,000 (12%) were called active. This list was built around the results that the source calls inconclusive (neither active nor inactive); the mix of calls is not that of the screen. Calls come from the whole dose curve; as a rule, active = well fitted inhibition curve with a large enough effect; inconclusive = small, poorly fitted or top-dose-only effect; inactive = flat fitted curve, though single readings scatter. Potencies of inconclusive entries are left out as doubtful fits.
# Assay: qHTS for Inhibitors of human tyrosyl-DNA phosphodiesterase 1 (TDP1): qHTS in cells in presence of CPT; note: nearly all actives have a fitted effect of over 55% in size
# Settings: chicken DT40 Tdp1-/-;hTDP1 cells + 20 nM CPT, ATP luminescence, 48 h; activity change, negative = growth inhibition: at 46.2 µM (top of the series) unless noted
# In short: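 Chicken DT40 Tdp1-/- cells complemented with human TDP1, 400 cells/well, exposed to compounds plus 20 nM camptothecin for at least 48 h at 37 C; viability read as ATP content by CellTiter-Glo luminescence.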
# % is set by controls: 0 for no effect and ±100 for the full control effect; potency is the fitted concentration of half-maximal effect; tags give direction and shape of the fitted curve.
SMILES,Potency,"activity change, negative = growth inhibition"
CCOc1ccccc1C(=O)N/N=C/c1cccc2cccnc12,"inconclusive [inhibitor, single point]",–
CCOc1ccc(CCNC(=O)CCNS(=O)(=O)c2ccc(Br)cc2)cc1OCC,"inconclusive [inhibitor, single point]",–
CCc1nnc(NC(=O)CCN2C(=O)CCC2=O)s1,–,inactive: -0.225%
Cc1ccn2cc(CCNC(=O)COc3ccccc3)nc2c1,"inconclusive [inhibitor, single point]",–
O=C1/C(=C/c2ccc(F)c(F)c2)CSc2sccc21,–,inconclusive: -33.4% [inhibitor]
Cn1c(N)c(C(=O)Nc2c(Cl)cccc2Cl)sc1=S,–,inactive: -3.64%
Cc1ccc(-c2nnc(N3CCN(C(=O)c4cccs4)CC3)c3ccccc23)cc1,"inconclusive [inhibitor, single point]",–
CC(=O)N1CCN(Cc2nc3cc([N+](=O)[O-])ccc3n2C)CC1,active: 6.51 µM,–
C[C@@H]1CCCCO[C@H](CN(C)S(=O)(=O)c2cccs2)[C@@H](C)CN([C@H](C)CO)C(=O)c2cc(NC(=O)Nc3ccc4c(c3)OCO4)ccc2O1,"inconclusive [inhibitor, partial curve]",–
Cc1cc(C)c(C(=O)CC2(O)C(=O)Nc3ccccc32)cc1C (stereo unspecified),"inconclusive [inhibitor, single point]",–
CCN(CC)C(=O)CSc1nc2ccccc2c(=O)n1-c1cccc(OC)c1,"inconclusive [inhibitor, single point]",–
CCN1C(=O)[C@H]2[C@@H](c3ccc(SC4CCCCC4)cc3)N3CCCC[C@@]3(C(=O)OC)[C@H]2C1=O,active: 14.6 µM,–
O=C(Nc1ccc(F)c(Cl)c1)N1CCC(CN2CCc3ccccc3C2)CC1,"inconclusive [inhibitor, single point]",–
CCOC(=O)c1c(NC(=O)COC(=O)c2ccc(Cl)nc2)sc(C)c1C,–,inactive: -13.2%
COc1ccccc1OCCNC(=O)c1cc(C2CC2)nc2c1cnn2C(C)C,"inconclusive [inhibitor, single point]",–
COc1ccccc1-c1cc(-c2ccccc2)nc(SCC(=O)O)c1C#N,"inconclusive [inhibitor, single point]",–
Cc1ccccc1S(=O)(=O)N1C[C@H]2[C@H]3C(=O)N(c4ccccc4)C(=O)[C@H]3CC(=O)[C@H]2[C@@H]1c1ccc(Cl)cc1,–,inactive: -4.77%
OCCCNc1ncnc2c1ncn2[C@H]1CN(Cc2ccc3c(c2)OCO3)C[C@@H](CO)O1,"inconclusive [inhibitor, partial curve]",–
CSc1nc2ccc(NC(=O)c3c(-c4ccccc4)noc3C)cc2s1,–,inactive: -2.59%
O=C(CC(c1ccc(F)cc1)c1ccco1)Nc1nccs1 (stereo unspecified),–,inactive: -20.4%
O=C(NCc1cccc(Cl)c1)c1ccc(-c2cccnc2)c2ccoc12,"inconclusive [inhibitor, single point]",–
C=CCNc1nc(N)c(C(=C(C#N)C#N)c2ccc(Br)cc2)s1,"inconclusive [inhibitor, single point]",–
COc1ccccc1NC(=O)c1ccc(S(=O)(=O)N(C)c2ccccc2)cc1,–,inactive: 2.53%

SMILES,Potency,"activity change, negative = growth inhibition"
CCCCn1c(NC(=O)C2CCCCC2)nc2ccccc21,"inconclusive [inhibitor, single point]",–
O=C(NCCc1ccccc1)c1ccc(NCC2CCCO2)c([N+](=O)[O-])c1 (stereo unspecified),–,inactive: -27.2%
CC1CCN(C(=O)c2ccc3c(Cl)c4c(nc3c2)CCCC4)CC1,–,inactive: -11.5%
COc1cccc(C2=NOC(C(=O)NCc3cccs3)C2)c1 (stereo unspecified),active: 20.6 µM,–
O=C(Cn1nc(-c2ccccc2)nc1-c1ccccc1)OC1CCCCC1,"inconclusive [inhibitor, single point]",–
O=C1NC2CCc3nc4ccccc4c(=O)n3C2=Nc2ccccc21 (stereo unspecified),–,inactive: 20.8%
O=C(c1ccc(Cl)cc1)N1CCCC(C(=O)N2CCc3ccccc3C2)C1 (stereo unspecified),"inconclusive [inhibitor, single point]",–
CCOc1ccc(OCCC(=O)OCC(=O)c2c(N)n(C)c(=O)n(C)c2=O)cc1,–,inactive: -8.71%
O=C(NCCN1CCOCC1)c1cc([N+](=O)[O-])cc([N+](=O)[O-])c1,–,inactive: 5.99%
Cc1nn(C)cc1CN(C)Cc1c(C(=O)N(C)Cc2ccccc2)nc2ccccn12,"inconclusive [inhibitor, partial curve, poor fit]",–
Cc1cccc(CCNC(=O)C2CCN(c3nc4ccccc4nc3C(F)(F)F)CC2)c1,"inconclusive [inhibitor, single point]",–
CCC(C)NC(=O)CCc1c(C)nc2cc(-c3ccc(OC)cc3OC)nn2c1C (stereo unspecified),–,inconclusive: -32.2% [inhibitor]
O=C(Cc1ccccc1Cl)Nc1cccnc1,–,inactive: -18%
CC(=O)n1cc(C2CC(=O)OC3=C2CC(=O)C(C)(C)C3)c2ccccc21 (stereo unspecified),"inconclusive [inhibitor, partial curve]",–
Cc1ccc(NC(=O)CS(=O)CC(=O)NC(C)CCc2ccco2)cc1Cl (stereo unspecified),–,inactive: -17.3%
O=C1CCCN1CCCNCC(O)c1ccccc1 (stereo unspecified),–,inactive: -19.8%
O=C(C=NNc1ccccc1)c1ccccc1,–,inactive: -17%
CCc1ccc(NC(=O)Cn2cnc3sc(C)c(S(=O)(=O)N4CCN(c5ccccc5OC)CC4)c3c2=O)cc1,"inconclusive [inhibitor, partial curve]",–
CC(C)C(=O)NC(c1ccc(N(C)C)cc1)c1c(O)ccc2ccccc12 (stereo unspecified),–,inactive: -19.7%
CNC(=O)c1c(NC(NC(=O)c2ccco2)C(=O)c2ccc(Cl)cc2)sc2c1CCCC2 (stereo unspecified),"inconclusive [inhibitor, partial curve]",–
OC(COc1ccc2ccccc2c1)CN1CCN(c2ccc(F)cc2)CC1 (stereo unspecified),"inconclusive [inhibitor, single point]",–
Cc1ccccc1CN(c1ccc(C(=O)NCCC2=CCCCC2)cc1)S(C)(=O)=O,"inconclusive [inhibitor, partial curve]",–
O=C(Nc1nc(-c2ccccc2)cs1)Nc1ccc(F)cc1F,active: 9.2 µM,–
